Test results from ChEMBL document CHEMBL5308541, “MAIP: An Open-Source Tool to Enrich High-Throughput Screening Output and Identify Novel, Druglike Molecules with Antimalarial Activity” (ACS Med Chem Lett, 2023).
Out of some 150,000 compounds screened, about 540 (0.36%) showed an effect of 50% or more. Some of the results follow.

The compounds below were run on Plasmodium falciparum (assay: Primary screen in NF54 nanoGlo assay, in single point, at 2uM, 72h; a lower Z score goes with more inhibition). Conditions: timepoint 72 hour.
Assay type: functional, Erythrocyte

Compound | % Inhibition [%] | Z score
Cc1nc([C@H](C)n2cnc(-c3ccccc3)c2-c2ccc3occc3c2)n[nH]1 | -2 | 0.46
Cn1ccc2c(-c3ccccc3CN3CCNCC3)ccnc21 | -7 | 1.14
CN1CCN(CC2CCN(C(=O)CC3CC(C)(C)NC(C)(C)C3)CC2)CC1 | 2 | -0.48
O=C(n1nnc2cc(Cl)c(Cl)cc21)C(F)(F)F | 29 | -5.11
C[C@@H](C(=O)N1CCC(C2(O)CC2)CC1)N1C(=O)c2cccc3cccc1c23 | -4 | 0.62
CCc1csc([C@H]2CCCN(c3snc(C)c3C#N)C2)n1 | -7 | 1.08
COc1ccc2oc(N[C@@H]3CCN(C(=O)c4onc5c4CCCC5)C3)nc2c1 | -3 | 0.53
OCc1ccc(-c2c(-c3ccccc3)ncn2Cc2cccc3[nH]ccc23)o1 | 3 | -0.48
CC(C)[C@@H](C#N)N1CCN(C(=O)CN2CCC(CN3CCCC3)CC2)CC1 | -2 | 0.43
CN1CCN(c2cc(C(=O)NC[C@H]3CCCN3Cc3ccccc3)ccn2)CC1 | 0 | 0.05
Cc1nc(-c2ccncc2)nc(N[C@H]2CCCN(C(=O)N3CCCC3)C2)c1C | 4 | -0.62
CN1CCC(CN2CCN(C(=O)Nc3ccc4ncccc4c3)CC2)CC1 | -4 | 0.75
CC1CCN(C[C@H]2CCCN(C(=O)c3cccc(-c4noc(C(F)(F)F)n4)c3)C2)CC1 | 14 | -3
C[C@H](Nc1nc(N)c2ccccc2n1)c1cccc(-n2cncn2)c1 | 26 | -4.57
c1ccc(Nc2ncc(-c3nc(CN4CCOCC4)no3)cn2)cc1 | -7 | 1.07
Cc1csc(N2CCN(c3ncnc4[nH]ccc34)C[C@@H]2C)n1 | -15 | 2.55
Cc1cc2occ(C(=O)Nc3cccnc3N3CCC(CO)CC3)c2cc1C | -6 | 0.96
Cc1nc(-c2ccccc2)sc1[C@H](C)N(C)Cc1ccon1 | -10 | 2.14
Cc1ccc(Nc2nc(NCCO)nc3[nH]nnc23)cc1 | 2 | -0.37
CN(CC1CCN(CCc2cccc(F)c2)CC1)C(=O)c1cnc2ccccc2c1 | -7 | 1.28
c1ccc(OC2COCCC2NC2CCN(C3CCCC3)CC2)nc1 (stereo unspecified) | 1 | -0.19
CC(C)c1ccc2cc(C(=O)NCCN3CCS(=O)(=O)CC3)[nH]c2c1 | 3 | -0.46
C[C@H]1CCCCN1C1CN(C(=O)c2cccc(-c3cccc(O)n3)c2)C1 | -9 | 1.48
